# Measured values as given in paper PMC4336329 (PLoS ONE, 2015).
# Among all 310,000 compounds or so, about 14,000 (4.5%) showed an effect of 50% or more. Effects have a minus sign here. The list shows a part of the results.
# Biological target: human ether-à-go-go-related gene (hERG) potassium channel (human, UniProt Q12809)
# Assay: primary screen, population patch clamp on CHO cells stably expressing hERG
# 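Also: peak tail current of the secondary pulse compared with the same well before compound.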
# Sequence of human ether-à-go-go-related gene (hERG) potassium channel (Q12809 whole entry, looked up): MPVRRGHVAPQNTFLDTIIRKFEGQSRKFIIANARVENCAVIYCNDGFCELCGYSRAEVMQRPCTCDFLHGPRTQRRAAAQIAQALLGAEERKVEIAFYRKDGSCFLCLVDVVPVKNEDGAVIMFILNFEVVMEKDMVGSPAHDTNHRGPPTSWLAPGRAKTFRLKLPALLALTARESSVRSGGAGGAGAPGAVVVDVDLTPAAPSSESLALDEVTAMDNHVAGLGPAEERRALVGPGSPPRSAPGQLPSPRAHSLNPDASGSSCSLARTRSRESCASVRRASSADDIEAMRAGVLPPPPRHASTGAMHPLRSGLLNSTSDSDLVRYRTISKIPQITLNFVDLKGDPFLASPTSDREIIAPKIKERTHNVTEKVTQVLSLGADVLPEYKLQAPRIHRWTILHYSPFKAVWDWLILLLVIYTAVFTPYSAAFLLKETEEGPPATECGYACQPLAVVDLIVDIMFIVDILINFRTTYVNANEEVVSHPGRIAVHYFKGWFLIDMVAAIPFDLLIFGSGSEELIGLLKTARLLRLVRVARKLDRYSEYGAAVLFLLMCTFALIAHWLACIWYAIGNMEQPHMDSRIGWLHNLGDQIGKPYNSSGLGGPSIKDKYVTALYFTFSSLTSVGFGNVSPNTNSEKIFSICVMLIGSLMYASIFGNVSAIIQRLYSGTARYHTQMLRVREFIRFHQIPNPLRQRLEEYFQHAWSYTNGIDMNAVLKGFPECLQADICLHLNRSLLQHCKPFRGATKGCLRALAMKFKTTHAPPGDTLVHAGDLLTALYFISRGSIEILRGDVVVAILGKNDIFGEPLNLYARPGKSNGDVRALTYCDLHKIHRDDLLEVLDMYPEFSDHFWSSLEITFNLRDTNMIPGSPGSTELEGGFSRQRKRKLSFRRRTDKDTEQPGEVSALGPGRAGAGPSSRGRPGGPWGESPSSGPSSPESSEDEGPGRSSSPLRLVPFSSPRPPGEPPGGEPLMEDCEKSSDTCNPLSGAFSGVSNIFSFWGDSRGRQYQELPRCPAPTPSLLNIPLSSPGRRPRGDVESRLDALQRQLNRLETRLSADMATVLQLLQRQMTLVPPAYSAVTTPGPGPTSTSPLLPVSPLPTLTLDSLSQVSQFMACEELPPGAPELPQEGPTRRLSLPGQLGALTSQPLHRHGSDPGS
row,SMILES,"hERG current change (%, negative = inhibition) at 10uM [%]"
1,Cc1cc2c(cc(C(=O)OC(C(=O)NCC3CCCO3)C(C)C)n2C)o1 (stereo not shown),6.2
2,O=C(NCc1cccnc1)Nc1ccccc1F,6.96
3,COc1ccc(C(=O)C2CCCN(Cc3c(C)[nH]c4ccccc34)C2)c(OC)c1 (stereo not shown),-70.1
4,Cc1cc(C)cc(-n2c(N)c(C(=O)Nc3c(C)n(C)n(-c4ccccc4)c3=O)c3nc4ccccc4nc32)c1,-36.5
5,O=C(COC(=O)CSc1ccc([N+](=O)[O-])cc1)NC1CCCCCCC1,39.1
6,CS(=O)(=O)N(CC(=O)NCc1ccccc1)Cc1ccc(Cl)cc1,-25.4
7,CC1CN(c2ccc(C(F)(F)F)cc2[N+](=O)[O-])CCN1S(C)(=O)=O (stereo not shown),-56.9
8,COc1ccc(-c2cc(=O)oc3cc(OCC(C)=O)ccc23)cc1,-74.6
9,COc1ccccc1P(=O)(Cc1ccccc1)c1ccccc1 (stereo not shown),3.3
10,O=C(O)CCC(=O)Nc1cccc(C(=O)c2ccccc2)c1,16.5
11,COc1ccc(-c2nc(C3CCCCC3)no2)cc1OC,-6.93
12,CCN1CCN(c2ccc(Nc3ccnc4ccccc34)cc2)CC1,-12.7
13,O=C(NCCN1CCOCC1)c1ccc(CSCc2cccc(Cl)c2)o1,-43.7
14,O=[N+]([O-])c1ccc(NCCNS(=O)(=O)c2ccccc2)cc1,-38.9
15,Cc1ccc(NC(=O)COC(=O)c2ccc3c(c2)C(=O)N(CCc2ccccc2)C3=O)c(C)c1,23.9
16,COc1cc(C(C2C(=O)CC(C)(C)CC2=O)C2C(=O)CC(C)(C)CC2=O)ccc1OC(C)=O,8.75
17,O=C(Nc1nc(-c2ccccn2)cs1)c1cc(S(=O)(=O)N2CCOCC2)ccc1F,-21.6
18,c1ccc(-c2nc(NCc3cccs3)c3ccccc3n2)cc1,7.27
19,O=C(Nc1c2c(nn1-c1ccc([N+](=O)[O-])cc1)CS(=O)(=O)C2)C1CC1,-30.6
20,Nc1c(-c2ccccc2)nc(Cl)nc1-c1ccccc1,-7.33
21,COc1cccc(CNC(=O)c2ccc3c(c2)N(C)CCS3)c1OC,15.6
22,Cc1ccc(C(=O)OC2CCS(=O)(=O)c3sccc32)cc1 (stereo not shown),-17.9
23,O=C(CN1CC(=O)Nc2ccccc21)NCCc1ccc(Cl)cc1Cl,58.5
24,NCc1nc(-c2ccc(Cl)cc2)no1,11.2
25,CN(C)S(=O)(=O)c1ccc(N2CCCC2)c(C(=O)NC2CCC(O)CC2)c1 (stereo not shown),13.2
26,COc1cc2occc2c2oc(=O)ccc12,0.24
27,COc1ccc(NC(=O)Cn2cnc3sc(C)c(S(=O)(=O)N4CCN(C)CC4)c3c2=O)cc1OC,18.3
28,COCCCN=C1NN=C(c2cc(C)n(Cc3ccco3)c2C)CS1.Cl,-47.8

row,SMILES,"hERG current change (%, negative = inhibition) at 10uM [%]"
1,FC(F)(F)c1cccc(NC(=S)NCC(c2cccnc2)N2CCOCC2)c1 (stereo not shown),-21.4
2,CCCn1c(=N)c(S(=O)(=O)c2ccccc2)cc2c(=O)n3cccc(C)c3nc21,0.577
3,CCOCCCNC(=O)C(NC(=O)CNC(=O)c1ccccc1)c1ccc(C)cc1 (stereo not shown),-2.53
4,O=C(NC1CCCCC1)C(c1ccncc1)N(C(=O)c1csnn1)c1cccc(F)c1 (stereo not shown),-12.3
5,Cn1c(-c2ccccc2[N+](=O)[O-])[n+](C)c2ccccc21.[Cl-],12.4
6,Cc1ccc(-n2ncc(C(=O)N3CCN(C(=O)c4ccco4)CC3)c2C2CCN(C(=O)OC(C)(C)C)CC2)cc1C,0.366
7,CN(C(=O)COC(=O)c1ccccc1NCc1ccco1)c1c(N)n(Cc2ccccc2)c(=O)[nH]c1=O,-3.77
8,CC1CCC/C(=N\Nc2ccc(Cl)c(C(=O)O)c2)C1 (stereo not shown),6.46
9,CCN1C(=O)c2cccc3cccc1c23,4.94
10,Cc1c(NC(=O)CSc2nnc(Nc3ccccc3)s2)c(=O)n(-c2ccccc2)n1C,-35.1
11,O=C(NN1C(=O)/C(=C\c2cccnc2)SC1=S)C(c1ccccc1)c1ccccc1,3.58
12,CC(=O)/C(=N/Nc1cccc(Cl)c1)Sc1nnc(C(O)c2ccccc2)n1-c1ccccc1 (stereo not shown),-3.07
13,COc1cccc(Cc2n[nH]c(=S)n2Cc2ccco2)c1,13.9
14,COCCCNC(=O)/C=C1\Sc2ccccc2N(Cc2ccccc2F)C1=O,-12.6
15,CCOC(=O)CC(NC(=O)c1ccc(C)cc1)c1ccc(C)cc1 (stereo not shown),2.74
16,O=C(O)CCCSCC(=O)Nc1ccccc1,8.14
17,Cc1ccccc1Nc1nc(N)nc(COC(=O)c2cccc(S(=O)(=O)N(C)C)c2)n1,-4.61
18,CCOc1ccc(NC(=O)c2cc(OC)nc3ccccc23)cc1,15.8
19,COc1ccccc1C1N(c2cc(Cl)ccc2OC)C(=O)C2CCCN21 (stereo not shown),1.23
20,CC(C)(C)n1ncc2c(=O)n(CC(=O)NC3CCCCC3)cnc21,5.38
21,CC(C)NC(=O)C(=O)NCc1ccccn1,5.94
22,O=C(NCCCN1CCCC1)Nc1ccccc1[N+](=O)[O-],18.1
23,C/C(=N/NC(=O)c1nnn(-c2nonc2N)c1-c1ccccc1)c1ccncc1,11.4
24,COc1cc(-c2noc(-c3ccccc3C(=O)NCc3ccco3)n2)cc(OC)c1OC,-3.88
25,Cc1ccc(C)n1-c1ccsc1C(=O)CC#N,42.2
26,CCOc1ncccc1C(=O)OCc1ccc([N+](=O)[O-])cc1,-21.1
27,Cc1cccc(NCN2C(=O)c3ccncc3C2=O)n1,17
